Experimental data as given in PubChem BioAssay AID485367 (National Center for Advancing Translational Sciences (NCATS), 2010).
Hit rate of the full screen: of about 330,000 compounds, about 560 (0.17%) were called active. The inconclusive results got no clear call from the source; some entries with a clear call stand among them for comparison. Calls come from the whole dose curve; as a rule, active = well fitted inhibition curve with a large enough effect; inconclusive = small, poorly fitted or top-dose-only effect, or effect the other way; inactive = flat fitted curve, though single readings scatter. Potencies of inconclusive entries are left out as doubtful fits.

target: ATP-dependent 6-phosphofructokinase (Trypanosoma brucei brucei) (UniProt O15648); assay: qHTS Assay to Find Inhibitors of T. brucei phosphofructokinase; note: nearly all actives have a fitted effect of over 60% in size;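 for activity, negative = inhibition: 0% = uninhibited 1x PFK enzyme wells and -100% = no-enzyme wells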; conditions: T. brucei PFK, ADP-Glo luminescence; activity, negative = inhibition: at 57.5 µM (top of the series)
Summary of the method: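 In TEA buffer at pH 8.0 with 5 mM MgCl2, enzyme (1.25 nM) converted F6P (0.5 mM) and ATP (0.1 mM) for 45 min at room temperature. ADP product was read by luciferase luminescence.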
Potency is the fitted concentration of half-maximal effect; tags give direction and shape of the fitted curve.

Sequence of UniProt O15648 (O15648 whole entry, looked up): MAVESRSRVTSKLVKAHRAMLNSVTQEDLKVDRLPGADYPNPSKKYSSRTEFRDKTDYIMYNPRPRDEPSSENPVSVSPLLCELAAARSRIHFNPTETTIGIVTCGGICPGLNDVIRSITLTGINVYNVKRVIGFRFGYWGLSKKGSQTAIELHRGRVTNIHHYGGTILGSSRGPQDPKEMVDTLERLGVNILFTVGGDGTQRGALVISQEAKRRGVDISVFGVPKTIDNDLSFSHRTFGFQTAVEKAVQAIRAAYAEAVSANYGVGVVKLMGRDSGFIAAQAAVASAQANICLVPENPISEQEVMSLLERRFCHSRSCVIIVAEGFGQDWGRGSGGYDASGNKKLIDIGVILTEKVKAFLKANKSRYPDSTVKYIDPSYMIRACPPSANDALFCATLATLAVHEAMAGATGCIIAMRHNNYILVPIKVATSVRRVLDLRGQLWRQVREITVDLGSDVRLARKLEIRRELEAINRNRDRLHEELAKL

**Q.** Which Potency does the source give for `O=c1[nH]c2cc3c(cc2cc1CN(Cc1cccnc1)C(=S)NCc1ccco1)OCCO3` here?
**A.** inconclusive [falling, partial curve]

**Q.** Which Potency does the source give for `O=C(COC(=O)c1cc(Cl)cc(Cl)c1)NCc1ccco1` here?
**A.** inconclusive [falling, single point]

**Q.** `OCCNCCCCOc1cccc(Br)c1` was tested. Which Potency did it give?
**A.** inconclusive [falling, partial curve, poor fit]

**Q.** How did the “activity, negative = inhibition” value turn out when `CCOC(=O)c1cc(-c2c(Cl)cccc2Cl)no1` was run?
**A.** inactive: -4.84%

**Q.** How did the Potency turn out when `O=C(Nc1ccc(C(=O)NC2CCCCC2)cc1)c1cccnc1` was run?
**A.** inconclusive [falling, single point]

**Q.** `Cc1ccc(C(=O)Nc2ccc(N3CCOCC3)cc2N2CCOCC2)cc1` was tested. Which Potency did it give?
**A.** inconclusive [falling, single point]

**Q.** How did the Potency turn out when `CS(=O)(=O)N(CC(=O)N1CCN(c2cccc(Cl)c2)CC1)c1cccc(F)c1` was run?
**A.** inconclusive [falling, single point]

**Q.** `Cc1ccccc1CSc1nnc(NC(=O)Cc2cccs2)s1` was tested. Which Potency did it give?
**A.** inconclusive [falling, single point]

**Q.** With `CCN1CCN(C(=S)c2ccc(Br)cc2)CC1` as the compound, how does the Potency read?
**A.** inconclusive [falling, partial curve]

**Q.** With `O=C(Nc1ccc(S(=O)(=O)Nc2ccccc2)cc1)C1COc2ccccc2O1` (configuration not stated) as the compound, how does the Potency read?
**A.** active: 10.7 µM

**Q.** `O=C(O)c1cc2ncc(-c3[nH]ncc3[N+](=O)[O-])cn2n1` was tested. Which Potency did it give?
**A.** inconclusive [activator, partial curve]

**Q.** For `O=C(O)c1cc2cccc(S(=O)(=O)N3CCOCC3)c2cc1O`, which “activity, negative = inhibition” value is on record?
**A.** inactive: 1.82%

**Q.** How did the Potency turn out when `O=C(NNC(=O)C1CCN(S(=O)(=O)c2ccc(Cl)cc2)CC1)c1ccccc1` was run?
**A.** inconclusive [falling, single point]

**Q.** Which Potency does the source give for `NS(=O)(=O)c1cccc(NC(=O)COc2ccc([N+](=O)[O-])cc2)c1` here?
**A.** active: 7.57 µM

**Q.** How did the Potency turn out when `O=C(O)C1Cc2ccccc2CN1S(=O)(=O)c1ccccc1` (configuration not stated) was run?
**A.** inconclusive [falling, single point]

**Q.** Which “activity, negative = inhibition” value does the source give for `Cc1sc2nc(C(C)C)nc(SCC(=O)N3CCN(C(=O)c4ccco4)CC3)c2c1C` here?
**A.** inactive: -0.665%

**Q.** `CN(/C=C/C(=C\C=[N+](C)c1ccccc1)OCCCS(=O)(=O)[O-])c1ccccc1` was tested. Which Potency did it give?
**A.** inconclusive [falling, single point]

**Q.** Which “activity, negative = inhibition” value does the source give for `Cc1ccc2nc(-c3cccc(-c4cccc(Cl)c4)c3)c(NCc3ccccc3)n2c1` here?
**A.** inactive: 0%

**Q.** Which Potency does the source give for `Oc1ccc(N2CCN(Cc3cc4c(cc3Br)OCCO4)CC2)cc1` here?
**A.** inconclusive [falling, partial curve]

**Q.** `CC(=O)N=Cc1c(C)c(C#N)c(=O)n(C)c1O` was tested. Which Potency did it give?
**A.** inconclusive [falling, single point]

**Q.** For `C/C(CC(=O)Nc1ccccc1F)=N\NC(=O)Cc1ccc(Cl)cc1`, which Potency is on record?
**A.** inconclusive [falling, partial curve]

**Q.** Which Potency does the source give for `COc1cccc(NC(=O)CN(C)C(C)C(=O)Nc2ccc(C(C)=O)cc2)c1` (configuration not stated) here?
**A.** inconclusive [activator, single point]

**Q.** Which “activity, negative = inhibition” value does the source give for `O=C1CCCN1S(=O)(=O)c1ccccc1` here?
**A.** inactive: 1.7%

**Q.** For `CN(C)C(CNC(=O)c1ccc(OCc2cn3ccccc3n2)cc1)c1ccco1` (configuration not stated), which Potency is on record?
**A.** inconclusive [falling, partial curve]

**Q.** How did the Potency turn out when `Nc1c(/C=C2/C=CC(=O)C(O)=C2)c(=O)nc2sc(CC(=O)N3CCCC3)nn12` was run?
**A.** inconclusive [falling, partial curve]

**Q.** `COc1ccc(NC(=O)Cc2ccc(Cl)c(Cl)c2)cn1` was tested. Which Potency did it give?
**A.** active: 12 µM

**Q.** For `COc1ccc(CCNC2CC(=O)N(CCc3ccccc3)C2=O)cc1` (configuration not stated), which “activity, negative = inhibition” value is on record?
**A.** inactive: -6.87%

**Q.** For `COc1cccc(CNC(=O)Cc2ccc(NC(=O)C3=C(C)OCCS3)cc2)c1`, which “activity, negative = inhibition” value is on record?
**A.** inactive: -8.22%

**Q.** `Cc1ccnc(NS(=O)(=O)c2ccc(NC(=O)c3cc(=O)c4ccccc4o3)cc2)n1` was tested. Which Potency did it give?
**A.** inconclusive [activator, full curve, poor fit]

**Q.** Which Potency does the source give for `CCc1nnc(NC(=O)CSc2nc3ccccc3s2)s1` here?
**A.** inconclusive [activator, single point]

**Q.** How did the Potency turn out when `Oc1cc2c(cc1O)[C@@H](c1ccccc1)CNCC2` was run?
**A.** active: 12 µM

**Q.** `S=C(NCc1ccc(Cl)cc1)Nc1ccncc1` was tested. Which Potency did it give?
**A.** active: 8.49 µM

**Q.** With `O=C(O)Cc1ccc(NC(=O)Nc2ccc(Br)cc2)cc1` as the compound, how does the Potency read?
**A.** inconclusive [falling, full curve, poor fit]

**Q.** `COc1ccc(OCC(=O)Nc2c(C(=O)N(CCN(C)C)Cc3ccco3)oc3ccccc23)cc1` was tested. Which “activity, negative = inhibition” value did it give?
**A.** inactive: -7.82%

**Q.** `COc1ccc(C)cc1-n1nnnc1SCC(=O)NC(=O)NCc1ccco1` was tested. Which Potency did it give?
**A.** active: 10.7 µM

**Q.** Which “activity, negative = inhibition” value does the source give for `O=[N+]([O-])c1ccc(NC(=S)NCCc2ccccc2)cc1` here?
**A.** inactive: -11.4%

**Q.** How did the Potency turn out when `COCc1cc(=O)n2[nH]c(-c3ccsc3-n3c(C)ccc3C)cc2n1` was run?
**A.** inconclusive [falling, single point]

**Q.** Which Potency does the source give for `COc1ccc(NC(=O)CN(C)C(=O)c2cc(-c3ccco3)nc3ccccc23)cc1` here?
**A.** inconclusive [falling, full curve]

**Q.** For `O=C(NCc1ccco1)c1cc2cc(Br)ccc2o1`, which Potency is on record?
**A.** inconclusive [falling, single point]

**Q.** Which “activity, negative = inhibition” value does the source give for `C=CCOc1cccc(/C=C2\C(=O)N(Cc3ccc(C)cc3)C(C)=C2C(=O)OC)c1` here?
**A.** inactive: 0.656%

**Q.** Which Potency does the source give for `NNC(=O)c1ccc(Cn2cc(Cl)cn2)cc1` here?
**A.** inconclusive [falling, single point]

**Q.** How did the Potency turn out when `CC(C)CCC(C)NC(=O)CN1C(=O)NC(C)(c2ccc3ccccc3c2)C1=O` (configuration not stated) was run?
**A.** inconclusive [activator, single point]

**Q.** With `CNCC(=O)Nc1ccc(Cl)c(C(F)(F)F)c1` as the compound, how does the Potency read?
**A.** inconclusive [falling, single point]

**Q.** For `S=C1NC2(CCCCC2)NN1c1ccccc1`, which Potency is on record?
**A.** inconclusive [falling, single point]

**Q.** How did the “activity, negative = inhibition” value turn out when `COc1ccc(/C=C/C(=O)Nc2ccc(-n3nncc3-c3ccccc3)cc2)cc1OC` was run?
**A.** inactive: -3.52%

**Q.** With `O=c1c2c([N+](=O)[O-])cc([N+](=O)[O-])cc2sn1-c1ccc(Br)cc1` as the compound, how does the Potency read?
**A.** inconclusive [falling, single point]

**Q.** Which Potency does the source give for `CN(C)S(=O)(=O)Nc1cccc(NC(=O)CC23CC4CC(CC(C4)C2)C3)c1` here?
**A.** inconclusive [falling, partial curve, poor fit]
